Laboratory results as given in the supplement of paper PMC3334620.
The full ranking holds about 33,000 sequences; the median of “E-score (-0.5 to 0.5)” is about -0.012, and the highest 2% start at about 0.27. This is one part of the list.

Each sequence was assayed against T1, Vhr1 (UniProt P40522) (assay: PBM E-score (8-mer binding enrichment) (E-score (-0.5 to 0.5)); higher = stronger / more preferred TF binding; most listed sequences are background and not binding sites). Settings: protein concentration: 200 nM; construct: GST-full length.
T1 sequence: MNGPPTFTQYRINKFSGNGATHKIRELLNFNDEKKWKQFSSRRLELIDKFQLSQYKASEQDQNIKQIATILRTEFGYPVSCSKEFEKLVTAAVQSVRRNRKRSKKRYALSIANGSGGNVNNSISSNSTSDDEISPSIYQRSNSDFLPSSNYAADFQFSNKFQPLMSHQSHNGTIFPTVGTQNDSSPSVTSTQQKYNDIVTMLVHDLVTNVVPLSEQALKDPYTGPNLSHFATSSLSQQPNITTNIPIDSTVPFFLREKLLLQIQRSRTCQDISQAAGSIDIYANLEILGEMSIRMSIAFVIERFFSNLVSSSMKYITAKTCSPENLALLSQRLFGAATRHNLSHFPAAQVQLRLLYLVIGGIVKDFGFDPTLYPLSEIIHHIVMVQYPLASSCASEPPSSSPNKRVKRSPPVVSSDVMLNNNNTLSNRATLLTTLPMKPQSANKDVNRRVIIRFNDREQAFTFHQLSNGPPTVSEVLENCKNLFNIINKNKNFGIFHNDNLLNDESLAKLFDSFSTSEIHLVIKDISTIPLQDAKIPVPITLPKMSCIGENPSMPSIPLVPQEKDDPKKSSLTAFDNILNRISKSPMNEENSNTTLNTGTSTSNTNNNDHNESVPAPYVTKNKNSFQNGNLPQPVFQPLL
In short: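 Using PURExpress in vitro transcription/translation, GST-tagged yeast transcription factors were made in full-length or DNA-binding-domain form. These were applied at about 100-200 nM to double-stranded universal all-10-mer Agilent arrays, and bound protein was detected with fluorescent anti-GST. Scans were normalised with masliner before the Universal PBM Analysis Suite assigned E-scores to ungapped eight-base words pooled with their reverse complements.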

Sequence	PBM E-score
GGCGCTCA	-0.104
CTAACAGA	0.0269
AGCGACTC	0.314
GTGGTGTA	0.0926
GCTAGTCA	0.284
CGCAGAGA	-0.0714
GGTGAAAA	-0.0982
AATAAATA	0.024
AGCTCCTG	-0.0876
AATAAAGG	-0.136
TGAGTTAA	0.027
CCCAAGAG	-0.121
AGGGCACC	-0.229
AGAAGCCG	-0.108
CATCAAGA	0.113
AACGTAAC	0.0955
AAAAGTCT	-0.325
TGAATACA	0.0447
CAAAATAG	-0.267
AGCATGGA	0.112
AGCGACAG	0.0678
TACGGCGA	0.0569
GTACAATA	-0.0957
AGAGCATC	-0.131
GGCGGCGA	0.126

Sequence	PBM E-score
CCGAGTAC	0.102
CCTATAAC	-0.0758
AAGTCGTA	-0.0973
ATATATCG	0.137
GGGGGCAA	-0.138
ACTCCCTG	0.276
CAGACCTC	-0.0287
CAGGGCAA	-0.216
AGTCAACA	0.19
CGTTATAC	-0.192
CCTCGGCC	0.00422
ACACCCAC	0.254
CAAATAAG	-0.203
AGTAACTA	0.158
ATTAGATG	0.00509
CATTCAAC	-0.00493
TAAGGGAA	-0.177
CATCCGGC	0.0747
TTAAAGAA	-0.123
ATACTCTA	0.00935
GTCGCCGA	-0.0286
AACCCGTC	-0.193
GCAGTAAC	0.00755
ACTTCAAC	-0.127
GAGACACA	0.14

Sequence	PBM E-score
AAAAACTA	-0.0842
TCACTAGA	0.0881
CTTAGTCC	0.0119
TAGCCGAA	-0.0303
TACCGCTA	0.0257
CGTGTGGA	-0.0696
AGAACCGC	0.0727
AGACACTC	0.00724
CAGTAATG	0.0368
ACCGCCTC	-0.0119
AAGGCAAC	0.0171
ACGGGACA	0.00889
CAGATTTA	0.169
AAGGTCGC	-0.184
ACAGATCT	0.0459
CTATTCAG	-0.0626
AGAGGGGC	-0.188
GCTGTAAC	0.116
AATCACCC	0.38
AAAGATAC	0.0157
GTGCATAA	-0.143
GTGGTCCA	0.195
ACCAAACT	0.0251
ACCATGAA	0.276
AGTTGGCC	-0.0117

Sequence	PBM E-score
GCTTCCAC	-0.181
CGGGCGCC	0.0834
ATGCCAGA	0.0397
AATTGAGG	-0.233
AAGATCCT	-0.0308
GCCCAAGA	-0.188
ATATATCA	0.0989
TACCGCGA	0.107
GTGAAAGA	-0.0844
CTGACCTC	-0.0456
AGTAGTTG	0.29
AAATCGTG	0.0765
GATGTCCA	0.0381
TGAGTGAA	0.124
GTAGGGCA	-0.163
ATCCCTTG	-0.0751
CAAGGAAG	-0.117
GAGATACC	0.0895
ATCAGAAG	-0.106
AGGCAGCG	-0.0538
CACCTCAC	-0.027
CTTGTATC	-0.123
GCCGGACC	0.0322
ACCAATCT	0.188
CTGATGAC	0.19

Sequence	PBM E-score
GCGGATGA	0.15
ATACAATA	0.249
ACCCTCGC	-0.113
CATGAGAG	0.147
AGGCGTTG	-0.216
ACACCTCC	0.0644
GTGGATCA	0.0417
AAAAAACG	-0.173
AACCTCCC	-0.0164
CGGTGATA	0.0139
GGAATTTA	-0.0832
AAGCAACT	-0.208
CTATCGCC	-0.211
CAGATTCC	-0.102
CGCTAATC	0.0168
CCGTTAGC	-0.121
GCACCTCA	-0.0962
CATCTTAA	-0.0309
CGAGGTAG	-0.137
AACCTGAG	-0.0364
CTCAACGC	-0.0297
AAATGACG	0.0757
CGCTTCAG	-0.00511
CCAGGATA	0.132
CATGCGGA	-0.0312

Sequence	PBM E-score
AGTGCACC	0.087
ACACACAG	0.353
ACGTTATA	0.0245
ATGATGAG	0.196
CAGCACGC	-0.172
CGCACCCA	0.147
GTCTACTA	0.148
ACAACGGC	-0.105
ACAACCCA	0.149
AGTGCATC	-0.0425
AAGGGAGG	-0.0787
AAGGCGGA	0.0113
CGTCGACG	0.161
GTAGTTGA	0.277
CATTAGTC	0.257
ACCGTTGG	-0.0468
ACATGAGG	-0.0901
CTTTTACA	-0.0481
ATCCCACA	-0.00784
ATTCAGCC	-0.00318
ACGGGGTC	0.0818
ACGGCGCA	0.175
CGAAAGAC	-0.118
GGTGTAAC	0.0727
GAAAGAGC	-0.247

Sequence	PBM E-score
CCCAAACG	-0.0262
ATGCACGG	-0.0284
CCCACGGC	-0.0881
GCAGGCCA	0.117
GAATATGA	-0.00634
AGGGTCTA	-0.177
CATGCCCG	0.0303
GCAAAATA	0.00706
GCAATAGC	0.116
CGCAATGA	0.102
ATCAGTAA	0.155
CTTCTTCA	-0.0905
GGTCGACC	0.32
AGAATAAA	-0.169
ACAGAGTG	0.0123
AATGATAT	0.197
GTGCCTAA	-0.322
GACGGCTA	-0.00215
AGGGACAT	0.0563
TAAGAATA	-0.162
ATGCGTCG	0.0303
CAGTAAAA	-0.136
